Experimental data published in the supplement of paper PMC10338343.
± gives the standard deviation. This is a selection; strong and weak results do not stand in their true shares.

Each sequence was assayed on MIWI (PIWIL1) piRISC loaded with piRNA #1 (30 nt) (assay: pre-steady-state target cleavage rate (min^-1); MIWI and MILI are mouse PIWI proteins and EfPiwi is from a freshwater sponge; tags in brackets are library labels; higher = faster piRNA-guided slicing of the target). Details: guide: piRNA #1 5'p-UGAGGUAGUAGGUUGUAUAGUAUCCAGAGG; auxiliary factor: 500 nM mouse GTSF1.
Procedure, shortened: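 Active affinity-purified piRISC carrying one synthetic guide (1 nM) was mixed with a transcribed, DNA-blocked target RNA library […] in HEPES–potassium acetate buffer at 33 °C for 0–8 or 0–960 min, with or without 500 nM GTSF1 partner protein. Uncleaved targets were then sequenced and normalised to depth and to weakly complementary targets. Three trials were pooled, and k3 was capped at 0.0001 min^-1. A burst-and-steady-state fit was applied to obtain the pre-steady-state cleavage rate.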
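Note: 1 nM active piRISC with 0.1 nM target library at 33 °C single turnover.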

Sequence | pre-steady-state target cleavage rate
CCUCUGGAUACAAUACAAGCUACUACCUCA | 1.45 ± 0.077
GGAGACCAUACUUUACAACCUAGUACCUCA | 0.508 ± 0.045
GGACUGGAUACUAUACAACCUACUACUUCA | 1.09 ± 0.1
GGAGAGGAUACUAUUCAACCUACUACCUGA | 0.293 ± 0.03
GGAGAGGAAACUAUACAAGCUACUACCUCA | 0.438 ± 0.034
GGAGUGGAUAGUAUAGAACCUACUACCUCA | 0.836 ± 0.057
GGAGACCUAUGUAUACAACCUCACUACCUCA | 0.00715 ± 0.0022
CGUCUGGAUACUAUACAACCUACUUCCUCA | 0.626 ± 0.05
GGAGACCUUUCUAUACAACCUACUAGCUCA | 0.492 ± 0.043
GGAGACCUUACUAAACAACCUACUACCUCA | 0.834 ± 0.074
GGAGAGGAUACUAUACAACCUACUAACCUCA | 1.01 ± 0.065
GGACUGGAUAGAUUACAACCUACUACCUCA | 0.0509 ± 0.0099
GGAGUGGAUACUAUACACCUACUACCUCA | 0.238 ± 0.028
GGUCUGGAUACUAUACAUCCAACUACCUCA | 0.0978 ± 0.016
GCUCUCCUUACUAUACAACCUACUACCUCA | 1.85 ± 0.12
GGACUGGAUACUAUACAACCUAGAACCUCA | 0.0154 ± 0.004
GGAGUGGAUACUAUACAACCUUCAACCUCA | 0.123 ± 0.016
GCUCUGGAUACUAUAGAACCUACUUCCUCA | 0.152 ± 0.034
GGAGACGAUACAAUACUACCUACUACCUCA | 0.646 ± 0.061
GGAGACGAUUCUAUACAACCUACUACCACA | 1.57 ± 0.092

Sequence | pre-steady-state target cleavage rate
GGAGACCUUACUAUACAACCUACUACCACA | 1.42 ± 0.1
GGAGACCUAAGUAAACAACCUACUACCUCA | 0.00387 ± 0.0035
GGAGUGGAUACUAUACAACCUACUACCUCG [g2:g26:cont:t1G] | 0.869 ± 0.07
GGAGUGGAUACUAUACAACCUUGUACCUCA | 0.0454 ± 0.0079
GGAGUCGAUACUAUACAACCUACAACCUCA | 0.245 ± 0.028
GGAGACCUUACUUUACAACCAACUACCUCA | 0.0162 ± 0.0045
GGAGACGAUACUAAACAACCUACUACGUCA | 0.84 ± 0.075
GGAGACCUAUCUAUACAACUUACUACCUCA | 0.259 ± 0.019
GGAGACCUAACUAUACAACCUUCUACCUGA | 0.126 ± 0.035
GGACUGGCAUACUAUACAACCUACUACCUCA | 1.68 ± 0.12
GGACUGGAUACUAUACAACCUACAUGGAGA [g8:g27:cont:t1A] | < 0.0001
GCUCUGGAUACUAUACAACGUUCUACCUCA | 0.146 ± 0.015
GCUCUGGAUACUAUACAACGAACUACCUCA | 0.0208 ± 0.0043
GGUCUGGAUACUUUACAACCUUCUACCUCA | 0.529 ± 0.04
GGUCUGGAUACUAUACAACCUAGAACCUCA | 0.00767 ± 0.0022
GCUGUGGAUACUAUACAACCUUCUACCUCA | 0.725 ± 0.039
GGAGACCAUACUAUUCAACCAACUACCUCA | 0.0721 ± 0.0085
GGAGACCAUACUAUACUACCUACUACCACA | 1.05 ± 0.096
GGACUGGAUACUAUACAAGCUUCUACCUCA | 0.152 ± 0.014
GGAGAGGAUACUAUAGUACCUACUACCUCA | 1 ± 0.073
